The other results are listed elsewhere or left out. Interaction screen of human proteins with wild-type SARS-CoV-2 proteins by split-DHFR complementation in yeast, 1 µg/mL methotrexate. Value = fitness of the pair (three or more lineages) minus that of the viral protein without a human partner, on a scale set by negative (0) and fused positive (1) controls, mean of up to three cultures; higher = more likely to interact. Active = false discovery rate below 0.05 (one-sided t-test) in at least one culture. Nearly all pairs are not hits, and differences among them are mostly noise (correlation between cultures about 0.3); most hits were seen in one culture only. Human sequences are the Swiss-Prot entries looked up by gene name; the clone may be another isoform. NSP2 values were corrected by the authors for a growth advantage. Listed are human proteins with a hit and a random twelfth of the others.
Experiments:
Assay in all cases: yeast fitness gain over the viral ORF with no human partner (scaled fitness); higher = more likely to interact
SARS-CoV-2 E = biological target: SARS-CoV-2 E
Procedure: (§1)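 Split mouse DHFR complementation in pooled diploid yeast: human ORFeome clones carry one fragment and viral ORFs the other; barcoded lineages compete in 1 µg/mL methotrexate and fitness is read by barcode sequencing in up to three cultures.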

SARS-CoV-2 M = biological target: SARS-CoV-2 M
Procedure: as §1

SARS-CoV-2 NSP1 = biological target: SARS-CoV-2 NSP1
Procedure: as §1

SARS-CoV-2 NSP10 = biological target: SARS-CoV-2 NSP10
Procedure: as §1

SARS-CoV-2 NSP12 = biological target: SARS-CoV-2 NSP12
Procedure: as §1

SARS-CoV-2 NSP13 = biological target: SARS-CoV-2 NSP13
Procedure: as §1

SARS-CoV-2 NSP15 = biological target: SARS-CoV-2 NSP15
Procedure: as §1

SARS-CoV-2 NSP16 = biological target: SARS-CoV-2 NSP16
Procedure: as §1

SARS-CoV-2 NSP2 = biological target: SARS-CoV-2 NSP2
Procedure: as §1

SARS-CoV-2 NSP4 = biological target: SARS-CoV-2 NSP4
Procedure: as §1

SARS-CoV-2 NSP5 = biological target: SARS-CoV-2 NSP5
Procedure: as §1

SARS-CoV-2 NSP6 = biological target: SARS-CoV-2 NSP6
Procedure: as §1

SARS-CoV-2 NSP7 = biological target: SARS-CoV-2 NSP7
Procedure: as §1

SARS-CoV-2 NSP8 = biological target: SARS-CoV-2 NSP8
Procedure: as §1

SARS-CoV-2 NSP9 = biological target: SARS-CoV-2 NSP9
Procedure: as §1

SARS-CoV-2 ORF10 = biological target: SARS-CoV-2 ORF10
Procedure: as §1

SARS-CoV-2 ORF3B = biological target: SARS-CoV-2 ORF3B
Procedure: as §1

SARS-CoV-2 ORF6 = biological target: SARS-CoV-2 ORF6
Procedure: as §1

SARS-CoV-2 ORF7A = biological target: SARS-CoV-2 ORF7A
Procedure: as §1

SARS-CoV-2 ORF7B = biological target: SARS-CoV-2 ORF7B
Procedure: as §1

SARS-CoV-2 ORF8 = biological target: SARS-CoV-2 ORF8
Procedure: as §1

SARS-CoV-2 ORF9B = biological target: SARS-CoV-2 ORF9B
Procedure: as §1

[1] = biological target: SARS-CoV-2 ORF9Bwu (the 73-codon ORF)
Procedure: as §1

SARS-CoV-2 S = biological target: SARS-CoV-2 S
Procedure: as §1

SARS-CoV-2 N = biological target: SARS-CoV-2 N
Procedure: as §1

SARS-CoV-2 ORF3A = biological target: SARS-CoV-2 ORF3A
Procedure: as §1

SARS-CoV-2 NSP14 = biological target: SARS-CoV-2 NSP14
Procedure: as §1

Measured: yeast fitness gain

B1: ASTN2, O75129 (protein)
chain: MAAAGARLSPGPGSGLRGRPRLCFHPGPPPLLPLLLLFLLLLPPPPLLAGATAAASREPDSPCRLKTVTVSTLPALRESDIGWSGARAGAGAGTGAGAAAAAASPGSPGSAGTAAESRLLLFVRNELPGRIAVQDDLDNTELPFFTLEMSGTAADISLVHWRQQWLENGTLYFHVSMSSSGQLAQATAPTLQEPSEIVEEQMHILHISVMGGLIALLLLLLVFTVALYAQRRWQKRRRIPQKSASTEATHEIHYIPSVLLGPQARESFRSSRLQTHNSVIGVPIRETPILDDYDCEEDEEPPRRANHVSREDEFGSQVTHTLDSLGHPGEEKVDFEKKAAAEATQETVESLMQKFKESFRANTPIEIGQLQPPLRSTSAGKRKRRSKSRGGISFGRAKGTSGSEADDETQLTFYTEQYRSRRRSKGLLKSPVNKTALTLIAVSSCILAMVCGSQMSCPLTVKVTLHVPEHFIADGSSFVVSEGSYLDISDWLNPAKLSLYYQINATSPWVRDLCGQRTTDACEQLCDPETGECSCHEGYAPDPVHRHLCVRSDWGQSEGPWPYTTLERGYDLVTGEQAPEKILRSTFSLGQGLWLPVSKSFVVPPVELSINPLASCKTDVLVTEDPADVREEAMLSTYFETINDLLSSFGPVRDCSRNNGGCTRNFKCVSDRQVDSSGCVCPEELKPMKDGSGCYDHSKGIDCSDGFNGGCEQLCLQQTLPLPYDATSSTIFMFCGCVEEYKLAPDGKSCLMLSDVCEGPKCLKPDSKFNDTLFGEMLHGYNNRTQHVNQGQVFQMTFRENNFIKDFPQLADGLLVIPLPVEEQCRGVLSEPLPDLQLLTGDIRYDEAMGYPMVQQWRVRSNLYRVKLSTITLAAGFTNVLKILTKESSREELLSFIQHYGSHYIAEALYGSELTCIIHFPSKKVQQQLWLQYQKETTELGSKKELKSMPFITYLSGLLTAQMLSDDQLISGVEIRCEEKGRCPSTCHLCRRPGKEQLSPTPVLLEINRVVPLYTLIQDNGTKEAFKSALMSSYWCSGKGDVIDDWCRCDLSAFDANGLPNCSPLLQPVLRLSPTVEPSSTVVSLEWVDVQPAIGTKVSDYILQHKKVDEYTDTDLYTGEFLSFADDLLSGLGTSCVAAGRSHGEVPEVSIYSVIFKCLEPDGLYKFTLYAVDTRGRHSELSTVTLRTACPLVDDNKAEEIADKIYNLYNGYTSGKEQQMAYNTLMEVSASMLFRVQHHYNSHYEKFGDFVWRSEDELGPRKAHLILRRLERVSSHCSSLLRSAYIQSRVETVPYLFCRSEEVRPAGMVWYSILKDTKITCEEKMVSMARNTYGESKGR
inactive: SARS-CoV-2 E 0.018 | SARS-CoV-2 M -0.137 | SARS-CoV-2 NSP1 = 0.0209 | SARS-CoV-2 NSP10 = 0.0229 | SARS-CoV-2 NSP12 = 0.014 | SARS-CoV-2 NSP13 = -0.009 | SARS-CoV-2 NSP15 = -0.0104 | SARS-CoV-2 NSP16 = -0.0563 | SARS-CoV-2 NSP2 = -0.14 | SARS-CoV-2 NSP4 = -0.0279 | SARS-CoV-2 NSP5 = -0.0752 | SARS-CoV-2 NSP6 = -0.0171 | SARS-CoV-2 NSP7 = -0.0436 | SARS-CoV-2 NSP8 = -0.0316 | SARS-CoV-2 NSP9 = -0.131 | SARS-CoV-2 ORF10 = 0.0352 | SARS-CoV-2 ORF3B -0.0724 | SARS-CoV-2 ORF6 = -0.0133 | SARS-CoV-2 ORF7A 0.0454 | SARS-CoV-2 ORF7B -0.0367 | SARS-CoV-2 ORF8 = -0.0138 | SARS-CoV-2 ORF9B -0.00159 | [1] -0.131 | SARS-CoV-2 S -0.00946

B2: DDX19B, Q9UMR2 (protein)
chain: MATDSWALAVDEQEAAAESLSNLHLKEEKIKPDTNGAVVKTNANAEKTDEEEKEDRAAQSLLNKLIRSNLVDNTNQVEVLQRDPNSPLYSVKSFEELRLKPQLLQGVYAMGFNRPSKIQENALPLMLAEPPQNLIAQSQSGTGKTAAFVLAMLSQVEPANKYPQCLCLSPTYELALQTGKVIEQMGKFYPELKLAYAVRGNKLERGQKISEQIVIGTPGTVLDWCSKLKFIDPKKIKVFVLDEADVMIATQGHQDQSIRIQRMLPRNCQMLLFSATFEDSVWKFAQKVVPDPNVIKLKREEETLDTIKQYYVLCSSRDEKFQALCNLYGAITIAQAMIFCHTRKTASWLAAELSKEGHQVALLSGEMMVEQRAAVIERFREGKEKVLVTTNVCARGIDVEQVSVVINFDLPVDKDGNPDNETYLHRIGRTGRFGKRGLAVNMVDSKHSMNILNRIQEHFNKKIERLDTDDLDEIEKIAN
inactive: SARS-CoV-2 E 0.0499 | SARS-CoV-2 M -0.00982 | SARS-CoV-2 N 0.0475 | SARS-CoV-2 NSP15 = -0.147 | SARS-CoV-2 NSP16 = -0.0803 | SARS-CoV-2 NSP4 = 0.08 | SARS-CoV-2 NSP6 = -0.000656 | SARS-CoV-2 NSP9 = 0.0132 | SARS-CoV-2 ORF3A 0.0713 | SARS-CoV-2 ORF3B 0.0393 | SARS-CoV-2 ORF7B -0.0925 | [1] -0.0516 | SARS-CoV-2 S -0.0673

B3: SNX6, Q9UNH7 (protein)
chain: MMEGLDDGPDFLSEEDRGLKAINVDLQSDAALQVDISDALSERDKVKFTVHTKSSLPNFKQNEFSVVRQHEEFIWLHDSFVENEDYAGYIIPPAPPRPDFDASREKLQKLGEGEGSMTKEEFTKMKQELEAEYLAIFKKTVAMHEVFLCRVAAHPILRRDLNFHVFLEYNQDLSVRGKNKKEKLEDFFKNMVKSADGVIVSGVKDVDDFFEHERTFLLEYHNRVKDASAKSDRMTRSHKSAADDYNRIGSSLYALGTQDSTDICKFFLKVSELFDKTRKIEARVSADEDLKLSDLLKYYLRESQAAKDLLYRRSRSLVDYENANKALDKARAKNKDVLQAETSQQLCCQKFEKISESAKQELIDFKTRRVAAFRKNLVELAELELKHAKGNLQLLQNCLAVLNGDT
inactive: SARS-CoV-2 E 0.0312 | SARS-CoV-2 M 0.0763 | SARS-CoV-2 N 0.0339 | SARS-CoV-2 NSP10 = -0.0143 | SARS-CoV-2 NSP12 = 0.0247 | SARS-CoV-2 NSP13 = 0.0597 | SARS-CoV-2 NSP14 = -0.263 | SARS-CoV-2 NSP16 = -0.225 | SARS-CoV-2 NSP2 = -0.0257 | SARS-CoV-2 NSP4 = -0.0972 | SARS-CoV-2 NSP5 = -0.00695 | SARS-CoV-2 NSP6 = 0.102 | SARS-CoV-2 NSP7 = -0.225 | SARS-CoV-2 NSP8 = -0.0306 | SARS-CoV-2 NSP9 = -0.208 | SARS-CoV-2 ORF10 = 0.0673 | SARS-CoV-2 ORF3B -0.00534 | SARS-CoV-2 ORF6 = 0.0195 | SARS-CoV-2 ORF7A -0.0104 | SARS-CoV-2 ORF7B -0.0118 | SARS-CoV-2 ORF8 = 0.0172 | SARS-CoV-2 ORF9B 0.0837 | [1] 0.036 | SARS-CoV-2 S -0.0464

B4: CHP1, Q99653 (protein)
chain: MGSRASTLLRDEELEEIKKETGFSHSQITRLYSRFTSLDKGENGTLSREDFQRIPELAINPLGDRIINAFFPEGEDQVNFRGFMRTLAHFRPIEDNEKSKDVNGPEPLNSRSNKLHFAFRLYDLDKDEKISRDELLQVLRMMVGVNISDEQLGSIADRTIQEADQDGDSAISFTEFVKVLEKVDVEQKMSIRFLH
inactive: SARS-CoV-2 E 0.0298 | SARS-CoV-2 M -0.0139 | SARS-CoV-2 NSP1 = 0.061 | SARS-CoV-2 NSP10 = 0.00353 | SARS-CoV-2 NSP12 = 0.0461 | SARS-CoV-2 NSP13 = 0.0636 | SARS-CoV-2 NSP14 = -0.0947 | SARS-CoV-2 NSP15 = -0.0237 | SARS-CoV-2 NSP16 = 0.194 | SARS-CoV-2 NSP2 = -0.0154 | SARS-CoV-2 NSP4 = -0.0318 | SARS-CoV-2 NSP5 = -0.00632 | SARS-CoV-2 NSP6 = 0.08 | SARS-CoV-2 NSP7 = -0.00955 | SARS-CoV-2 NSP8 = -0.0213 | SARS-CoV-2 NSP9 = -0.0731 | SARS-CoV-2 ORF10 = -0.0599 | SARS-CoV-2 ORF3A -0.0511 | SARS-CoV-2 ORF3B 0.0516 | SARS-CoV-2 ORF6 = 0.0613 | SARS-CoV-2 ORF7A 0.0204 | SARS-CoV-2 ORF7B -0.00873 | SARS-CoV-2 ORF8 = 0.0594 | SARS-CoV-2 ORF9B 0.000164 | [1] -0.063 | SARS-CoV-2 S 0.045

Source: the supplement of paper PMC11741623
